# According to the supplement of paper PMC3334620:
# The full ranking holds about 33,000 sequences; the median of “E-score (-0.5 to 0.5)” is about -0.043, and the highest 2% start at about 0.37. The list shows a part of the results.
# Molecular target: T1, Upc2 (UniProt Q12151)
# T1 sequence: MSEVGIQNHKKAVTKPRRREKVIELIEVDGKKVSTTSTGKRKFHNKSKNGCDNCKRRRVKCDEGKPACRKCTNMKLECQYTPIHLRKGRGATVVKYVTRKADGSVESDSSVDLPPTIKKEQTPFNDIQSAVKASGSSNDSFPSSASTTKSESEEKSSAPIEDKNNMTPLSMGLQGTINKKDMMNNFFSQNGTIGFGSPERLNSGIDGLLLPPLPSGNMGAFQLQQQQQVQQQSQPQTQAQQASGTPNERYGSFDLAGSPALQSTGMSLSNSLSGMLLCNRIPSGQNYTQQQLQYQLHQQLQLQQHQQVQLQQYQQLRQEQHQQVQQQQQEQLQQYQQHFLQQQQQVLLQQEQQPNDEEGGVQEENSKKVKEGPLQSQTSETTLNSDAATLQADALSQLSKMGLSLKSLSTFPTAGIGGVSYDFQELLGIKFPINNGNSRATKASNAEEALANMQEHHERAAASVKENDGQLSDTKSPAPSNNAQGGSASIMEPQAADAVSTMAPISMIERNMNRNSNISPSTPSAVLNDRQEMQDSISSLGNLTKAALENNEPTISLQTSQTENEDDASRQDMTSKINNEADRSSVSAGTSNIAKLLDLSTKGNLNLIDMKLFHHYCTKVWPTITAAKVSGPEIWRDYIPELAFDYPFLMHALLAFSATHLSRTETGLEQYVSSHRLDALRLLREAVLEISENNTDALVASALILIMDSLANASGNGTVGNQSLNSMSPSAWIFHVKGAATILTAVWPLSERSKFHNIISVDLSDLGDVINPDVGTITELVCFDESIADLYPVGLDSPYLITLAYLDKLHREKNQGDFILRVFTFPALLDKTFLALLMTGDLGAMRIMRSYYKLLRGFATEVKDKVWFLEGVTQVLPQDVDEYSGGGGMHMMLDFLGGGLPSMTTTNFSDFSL
# Assay: PBM E-score (8-mer binding enrichment) (E-score (-0.5 to 0.5)); higher = stronger / more preferred TF binding; most listed sequences are background and not binding sites
# Conditions: protein concentration: 200 nM; construct: GST-full length
# Outline: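 For each ungapped eight-base word taken together with its reverse complement, the Universal PBM Analysis Suite assigned an E-score. Binding data came from GST-tagged yeast transcription factors, applied at about 100-200 nM, on universal all-10-mer Agilent arrays made double-stranded by primer extension. Fluorescent anti-GST marked bound protein, and scans were normalised with masliner.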
row,Sequence,PBM E-score
1,ATCGAATC,-0.0848
2,GCAAATGC,-0.167
3,AATTAGGT,-0.0266
4,CGGACGTA,0.174
5,AGCGACCA,0.14
6,CTCTGAAA,-0.211
7,ATTAAGCC,-0.141
8,AAGATTCT,-0.301
9,GGATGTAC,0.186
10,GTTCACGA,0.251
11,CTCTACAG,-0.18
12,CAGTTCTA,-0.0821
13,ATGGCTAA,-0.117
14,ATAGCTAA,-0.155
15,AAACGCGG,0.302
16,AACAGCTC,-0.0618
17,GCGCCCCA,-0.208
18,AGGAAATG,-0.0722
19,TAAGTAAA,-0.00508
20,AACCGCCT,-0.0946
21,ACGATTAT,0.283
22,AGCAGGTG,-0.0794
23,ATATGAAG,-0.19
24,CACTAGCC,-0.0426
25,ATGTGCAA,0.0666

row,Sequence,PBM E-score
1,CACAAAAA,0.0697
2,AAAGTTAG,-0.0123
3,ATGTCGCC,0.00869
4,CATACCAG,-0.0446
5,GCTGGTTA,-0.0868
6,ACTGTACG,0.433
7,CAAGCCAG,-0.289
8,AGCCTATC,-0.102
9,CAAATGGA,0.0251
10,CCGTACAA,0.413
11,CGAGCCAG,0.211
12,ACACTGGT,-0.0649
13,ATAACGTG,0.0885
14,AATCCACC,-0.163
15,CAGTTGCG,-0.0445
16,AAGCTAAA,0.0573
17,ACAGTTTG,-0.00269
18,ATTTTGAG,-0.0806
19,CGGTCACC,-0.0331
20,AGCGGGCA,-0.116
21,GACAGAAC,0.186
22,CTGCAAGA,-0.0196
23,ATAACCAT,0.198
24,ACCCCATG,-0.211
25,GCTCCATA,-0.113

row,Sequence,PBM E-score
1,CGTGCTCC,-0.0314
2,ATTATCGG,0.0623
3,GGGAGTCA,-0.269
4,ACCCCGGG,-0.124
5,AGAGTCCA,-0.256
6,ATTCGGTG,0.00165
7,AAGCTACT,0.134
8,CTACCGGC,-0.38
9,ACCTTGCG,0.0287
10,CAAAGAAA,0.126
11,TTCCGGAA,-0.206
12,GACTGACA,-0.104
13,GACTCTCC,0.044
14,AAATCCGT,0.0321
15,AACTCCTT,-0.0745
16,GAGTCATC,-0.189
17,CTGGATGC,-0.0386
18,CCGTTGCA,-0.0404
19,ACGTGCAG,-0.053
20,CAATTGAA,0.0837
21,GTTATGAA,0.0713
22,ACCTACCG,0.00737
23,CGCTGAAG,-0.103
24,ACCTCGCG,0.218
25,CTCTTTGA,-0.197

row,Sequence,PBM E-score
1,ATCAATTG,0.109
2,GCCACCCA,-0.258
3,ATGAAGGA,0.021
4,ACTTACCC,-0.0385
5,CCTGATGA,-0.044
6,AAGAATCG,0.155
7,GACAACGC,-0.0893
8,ACTTCGTA,0.429
9,AGCGTCAG,-0.218
10,GTAAGCTA,0.0624
11,CAAACAAC,-0.0706
12,ATAAACCC,-0.0338
13,ACTTCTGA,-0.307
14,ACTACCTC,-0.189
15,CCCACACA,-0.275
16,ACGACCTG,0.366
17,TAAGCCGA,0.0915
18,AAGTGAGC,-0.0963
19,GGGGATGA,-0.254
20,ACGAGTTA,0.392
21,CCCCAAGA,-0.22
22,GCAGCTTA,-0.115
23,CGCTATTC,0.102
24,AATGCCTC,0.0552
25,CAGCCGTC,-0.154

row,Sequence,PBM E-score
1,ATTGTATG,-0.168
2,TAGTAACA,-0.0854
3,AAATTGTA,0.0766
4,CCTCCCAC,-0.214
5,TAATGGTA,0.144
6,TAATTGCA,0.0463
7,ATACCGCC,-0.0676
8,GTCTTGTA,-0.0824
9,ATCTGGCC,-0.231
10,GTCTAGAC,0.0278
11,CCACCCAC,-0.111
12,AGTGAGGC,-0.151
13,GCCTGCTA,-0.284
14,AGCACGAA,0.0491
15,CTTATGCA,-0.09
16,GTAAGTAC,0.184
17,AGGTTCTC,-0.0307
18,CTTCGGCA,0.0234
19,ACCAAATC,-0.134
20,AGATTACC,-0.0913
21,GAGACTTA,-0.12
22,AGCCATAA,0.0502
23,AGACATCC,-0.0776
24,CTCCATGA,-0.196
25,AAGCGTAA,0.186

row,Sequence,PBM E-score
1,TCAAACGA,0.471
2,GACATATA,0.0812
3,CATTTTAC,0.266
4,ATTCATTC,0.0864
5,AGGCCCCT,-0.211
6,TACTGCGA,0.0604
7,CACGGACA,-0.229
8,GTGTGCCA,-0.0946
9,CTGTGAGA,-0.223
10,AAGCGCTC,0.0466
11,ATTCCTAC,-0.145
12,AAGTCAAT,-0.14
13,ATTATCCG,0.176
14,AGTCACGA,-0.18
15,CGTTACTA,0.0805
16,CCGGAGGC,-0.239
17,CTCTCACA,-0.293
18,CGTTCTGA,0.166
19,GCAGTTCA,-0.143
20,AGAACTCG,0.0484
21,CAGGTTTC,-0.0524
22,CCGGGTTA,0.00954
23,AAGACCGA,0.0569
24,AGCGCTAT,0.0932
25,AACGTTAT,0.0892

row,Sequence,PBM E-score
1,ATTGCGGG,-0.134
2,CCGGATCG,-0.0403
3,ACGTAACT,0.054
4,CTCATTCC,-0.31
5,ACATACCA,-0.0855
6,GGTCGGGA,0.0566
7,CGCATGGC,-0.0423
8,GAAAGACA,-0.0745
9,CGGCAATC,-0.0433
10,AGTATTTG,0.00187
11,GATGACGC,0.0864
12,AGAGCAAC,-0.073
13,GATTCCTA,-0.188
14,ACTAGAAA,-0.0843
15,AACCCAAC,0.00517
16,TAGTCCCA,-0.12
17,ATGAAGCA,-0.321
18,ACTTTGAC,0.0294
19,CTCAATAC,0.0135
20,GTTCATGA,0.225
21,AGCGCATG,-0.241
22,CATTAGCG,0.197
